Results from the supplement of paper PMC6451100.
This is one part of the list. Values come from read counts of a selection and are noisy.

What follows are sequences tested against T1, Drosophila AGO2 (FLAG-tagged, S2-R+ lysate) (UniProt Q9VUQ5) (assay: AGO2 loading enrichment factor (IP read count / input read count, not library-size normalised) (ratio); higher = more efficient loading into AGO2). Settings: randomized region: 5' 5N of miR-317 loop.
T1 sequence: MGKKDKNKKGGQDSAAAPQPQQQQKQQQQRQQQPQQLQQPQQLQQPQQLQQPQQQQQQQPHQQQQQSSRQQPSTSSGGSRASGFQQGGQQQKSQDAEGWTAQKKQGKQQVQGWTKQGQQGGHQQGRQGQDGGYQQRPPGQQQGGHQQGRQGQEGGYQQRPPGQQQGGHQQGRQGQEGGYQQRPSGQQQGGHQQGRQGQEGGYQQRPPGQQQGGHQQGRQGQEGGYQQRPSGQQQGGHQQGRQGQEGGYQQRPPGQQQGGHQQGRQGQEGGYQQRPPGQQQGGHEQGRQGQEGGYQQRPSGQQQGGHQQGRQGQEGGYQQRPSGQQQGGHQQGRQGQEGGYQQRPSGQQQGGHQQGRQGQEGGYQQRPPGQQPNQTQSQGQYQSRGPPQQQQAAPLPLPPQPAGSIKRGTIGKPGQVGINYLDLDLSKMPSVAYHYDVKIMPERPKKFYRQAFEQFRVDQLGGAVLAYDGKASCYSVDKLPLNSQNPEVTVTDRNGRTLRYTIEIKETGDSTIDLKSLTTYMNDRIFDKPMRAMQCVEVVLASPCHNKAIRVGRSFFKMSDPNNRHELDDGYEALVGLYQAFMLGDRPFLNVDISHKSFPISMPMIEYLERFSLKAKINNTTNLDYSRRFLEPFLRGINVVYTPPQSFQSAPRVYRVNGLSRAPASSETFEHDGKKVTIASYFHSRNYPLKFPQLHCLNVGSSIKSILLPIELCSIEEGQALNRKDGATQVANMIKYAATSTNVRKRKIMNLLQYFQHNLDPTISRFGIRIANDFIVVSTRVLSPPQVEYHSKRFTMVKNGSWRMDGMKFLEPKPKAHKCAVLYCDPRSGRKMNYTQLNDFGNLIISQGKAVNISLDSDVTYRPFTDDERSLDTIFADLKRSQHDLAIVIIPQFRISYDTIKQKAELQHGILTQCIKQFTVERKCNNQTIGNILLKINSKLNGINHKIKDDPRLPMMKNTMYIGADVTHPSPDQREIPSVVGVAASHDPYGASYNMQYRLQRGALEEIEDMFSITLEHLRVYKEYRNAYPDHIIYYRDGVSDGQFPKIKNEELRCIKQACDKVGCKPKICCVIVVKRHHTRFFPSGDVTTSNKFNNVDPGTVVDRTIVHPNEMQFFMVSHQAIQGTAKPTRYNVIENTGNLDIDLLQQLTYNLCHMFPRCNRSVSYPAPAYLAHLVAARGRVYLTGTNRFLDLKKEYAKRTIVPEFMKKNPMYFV
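Also: Per-sequence enrichment computed with FASTAptamer, counting only reads that carry the expected constant 3′ region.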

| Sequence | AGO2 loading enrichment factor |
| --- | --- |
| TAAGCTGAAATGCAAGCAAG | 0.104 |
| GAGGTTGAAATGCAAGCAAG | 1.32 |
| CACGCTGAAATGCAAGCAAG | 0.0801 |
| AAGGCTGAAATGCAAGCAAG | 0.095 |
| TTCTGTGAAATGCAAGCAAG | 0.626 |
| ACAAGTGAAATGCAAGCAAG | 0.377 |
| CCCACTGAAATGCAAGCAAG | 0.214 |
| GGAACTGAAATGCAAGCAAG | 0.645 |
| GATTATGAAATGCAAGCAAG | 0.42 |
| CACACTGAAATGCAAGCAAG | 0.367 |
| TGCGATGAAATGCAAGCAAG | 0.29 |
| CCCTTTGAAATGCAAGCAAG | 0.385 |
| TCTCCTGAAATGCAAGCAAG | 1.1 |
| TCTTCTGAAATGCAAGCAAG | 0.415 |
| TAGAGTGAAATGCAAGCAAG | 0.462 |
| CGAGTTGAAATGCAAGCAAG | 0.33 |
| AAGCCTGAAATGCAAGCAAG | 0.18 |
| CTAGATGAAATGCAAGCAAG | 0.341 |
| CAGATTGAAATGCAAGCAAG | 0.29 |
| TCTAGTGAAATGCAAGCAAG | 0.39 |
| ACAGATGAAATGCAAGCAAG | 0.422 |
| CAATGTGAAATGCAAGCAAG | 0.245 |
| GGAGGTGAAATGCAAGCAAG | 6.89 |
| TACGTTGAAATGCAAGCAAG | 0.372 |
| GATAGTGAAATGCAAGCAAG | 0.456 |

| Sequence | AGO2 loading enrichment factor |
| --- | --- |
| CCCGCTGAAATGCAAGCAAG | 0.102 |
| CATGATGAAATGCAAGCAAG | 0.266 |
| AAGTCTGAAATGCAAGCAAG | 0.32 |
| CCAGTTGAAATGCAAGCAAG | 0.327 |
| TCATCTGAAATGCAAGCAAG | 0.322 |
| TCGTCTGAAATGCAAGCAAG | 0.355 |
| CTCCCTGAAATGCAAGCAAG | 0.569 |
| GCGAGTGAAATGCAAGCAAG | 0.0744 |
| GGTTATGAAATGCAAGCAAG | 0.561 |
| GGCCATGAAATGCAAGCAAG | 1.53 |
| CCGTTTGAAATGCAAGCAAG | 0.139 |
| TCGGGTGAAATGCAAGCAAG | 2.33 |
| TGAGGTGAAATGCAAGCAAG | 1.2 |
| ATGCGTGAAATGCAAGCAAG | 0.375 |
| ATCGATGAAATGCAAGCAAG | 0.409 |
| AAGATTGAAATGCAAGCAAG | 0.348 |
| GTGGCTGAAATGCAAGCAAG | 0.364 |
| TCTACTGAAATGCAAGCAAG | 0.377 |
| ATCGTTGAAATGCAAGCAAG | 0.358 |
| GATCTTGAAATGCAAGCAAG | 0.139 |
| AAAAGTGAAATGCAAGCAAG | 0.366 |
| GCCCTTGAAATGCAAGCAAG | 0.433 |
| CAACGTGAAATGCAAGCAAG | 0.338 |
| CGCTATGAAATGCAAGCAAG | 0.375 |
| CAATATGAAATGCAAGCAAG | 0.444 |

| Sequence | AGO2 loading enrichment factor |
| --- | --- |
| CACCATGAAATGCAAGCAAG | 0.551 |
| AATCTTGAAATGCAAGCAAG | 0.0764 |
| CGGCCTGAAATGCAAGCAAG | 0.374 |
| TGCAATGAAATGCAAGCAAG | 0.123 |
| GTCCCTGAAATGCAAGCAAG | 0.356 |
| TACTTTGAAATGCAAGCAAG | 0.264 |
| TCACGTGAAATGCAAGCAAG | 0.523 |
| CCGGCTGAAATGCAAGCAAG | 0.208 |
| CAACTTGAAATGCAAGCAAG | 0.098 |
| TGTATTGAAATGCAAGCAAG | 0.285 |
| CTGAGTGAAATGCAAGCAAG | 0.484 |
| GCCATTGAAATGCAAGCAAG | 0.379 |
| CAACCTGAAATGCAAGCAAG | 0.25 |
| TTGGGTGAAATGCAAGCAAG | 1.41 |
| CTGTATGAAATGCAAGCAAG | 0.306 |
| GGTAGTGAAATGCAAGCAAG | 0.969 |
| TTTTTTGAAATGCAAGCAAG | 0.398 |
| TGCACTGAAATGCAAGCAAG | 0.15 |
| CAAGCTGAAATGCAAGCAAG | 0.063 |
| TTTGATGAAATGCAAGCAAG | 0.738 |
| CTTGGTGAAATGCAAGCAAG | 0.0502 |
| AGCCTTGAAATGCAAGCAAG | 0.147 |
| ATTTGTGAAATGCAAGCAAG | 0.28 |
| CAAAGTGAAATGCAAGCAAG | 0.345 |
| TCCTTTGAAATGCAAGCAAG | 0.268 |

| Sequence | AGO2 loading enrichment factor |
| --- | --- |
| CGGTTTGAAATGCAAGCAAG | 0.277 |
| GGCGGTGAAATGCAAGCAAG | 1.17 |
| GGCGCTGAAATGCAAGCAAG | 0.334 |
| AACGGTGAAATGCAAGCAAG | 0.458 |
| CCGTATGAAATGCAAGCAAG | 0.413 |
| CTTCATGAAATGCAAGCAAG | 0.129 |
| TCCGTTGAAATGCAAGCAAG | 0.261 |
| GGTGTTGAAATGCAAGCAAG | 0.914 |
| CCCAATGAAATGCAAGCAAG | 0.438 |
| TATGGTGAAATGCAAGCAAG | 0.405 |
| GCACTTGAAATGCAAGCAAG | 0.0946 |
| TGGGTTGAAATGCAAGCAAG | 1.43 |
| CACAGTGAAATGCAAGCAAG | 0.49 |
| TGAATTGAAATGCAAGCAAG | 0.442 |
| AGGAATGAAATGCAAGCAAG | 0.634 |
| GATACTGAAATGCAAGCAAG | 0.319 |
| GTAAGTGAAATGCAAGCAAG | 0.341 |
| TATCCTGAAATGCAAGCAAG | 0.405 |
| TGTTATGAAATGCAAGCAAG | 0.401 |
| AGAGCTGAAATGCAAGCAAG | 0.136 |
| GGACATGAAATGCAAGCAAG | 0.858 |
| TACGATGAAATGCAAGCAAG | 0.321 |
| AATTCTGAAATGCAAGCAAG | 0.396 |
| TACCTTGAAATGCAAGCAAG | 0.114 |
| TTCGATGAAATGCAAGCAAG | 0.314 |

| Sequence | AGO2 loading enrichment factor |
| --- | --- |
| GGAGATGAAATGCAAGCAAG | 2.75 |
| TTTAGTGAAATGCAAGCAAG | 0.47 |
| TTGGATGAAATGCAAGCAAG | 0.474 |
| ACTTATGAAATGCAAGCAAG | 0.359 |
| GTGACTGAAATGCAAGCAAG | 0.726 |
| TGAACTGAAATGCAAGCAAG | 0.42 |
| ACAATTGAAATGCAAGCAAG | 0.411 |
| AGTACTGAAATGCAAGCAAG | 0.382 |
| CCTCATGAAATGCAAGCAAG | 0.327 |
| CTGAATGAAATGCAAGCAAG | 0.483 |
| GCTGCTGAAATGCAAGCAAG | 0.0225 |
| AGCCATGAAATGCAAGCAAG | 0.439 |
| GGGCATGAAATGCAAGCAAG | 0.533 |
| CGTGTTGAAATGCAAGCAAG | 0.353 |
| TTTATTGAAATGCAAGCAAG | 0.505 |
| CACCTTGAAATGCAAGCAAG | 0.0571 |
| AGACTTGAAATGCAAGCAAG | 0.083 |
| TACAATGAAATGCAAGCAAG | 0.426 |
| GTTTCTGAAATGCAAGCAAG | 0.286 |
| CGATTTGAAATGCAAGCAAG | 0.454 |
| ACTTTTGAAATGCAAGCAAG | 0.398 |
| CCGCCTGAAATGCAAGCAAG | 0.306 |
| GAAGGTGAAATGCAAGCAAG | 1.34 |
| TGGCATGAAATGCAAGCAAG | 0.33 |
| TTGGCTGAAATGCAAGCAAG | 0.253 |
